{"source": "paper PMC4336329", "about": "(PLoS ONE, 2015)", "note": "Hit rate of the full screen: of about 310,000 compounds, about 14,000 (4.5%) showed an effect of 50% or more. The effect is printed as a negative number. Some of the results follow.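 Further: peak tail current of the secondary pulse compared with the same well before compound.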"}
{"target": "human ether-à-go-go-related gene (hERG) potassium channel (human, UniProt Q12809)", "sequence (Q12809 whole entry, looked up)": "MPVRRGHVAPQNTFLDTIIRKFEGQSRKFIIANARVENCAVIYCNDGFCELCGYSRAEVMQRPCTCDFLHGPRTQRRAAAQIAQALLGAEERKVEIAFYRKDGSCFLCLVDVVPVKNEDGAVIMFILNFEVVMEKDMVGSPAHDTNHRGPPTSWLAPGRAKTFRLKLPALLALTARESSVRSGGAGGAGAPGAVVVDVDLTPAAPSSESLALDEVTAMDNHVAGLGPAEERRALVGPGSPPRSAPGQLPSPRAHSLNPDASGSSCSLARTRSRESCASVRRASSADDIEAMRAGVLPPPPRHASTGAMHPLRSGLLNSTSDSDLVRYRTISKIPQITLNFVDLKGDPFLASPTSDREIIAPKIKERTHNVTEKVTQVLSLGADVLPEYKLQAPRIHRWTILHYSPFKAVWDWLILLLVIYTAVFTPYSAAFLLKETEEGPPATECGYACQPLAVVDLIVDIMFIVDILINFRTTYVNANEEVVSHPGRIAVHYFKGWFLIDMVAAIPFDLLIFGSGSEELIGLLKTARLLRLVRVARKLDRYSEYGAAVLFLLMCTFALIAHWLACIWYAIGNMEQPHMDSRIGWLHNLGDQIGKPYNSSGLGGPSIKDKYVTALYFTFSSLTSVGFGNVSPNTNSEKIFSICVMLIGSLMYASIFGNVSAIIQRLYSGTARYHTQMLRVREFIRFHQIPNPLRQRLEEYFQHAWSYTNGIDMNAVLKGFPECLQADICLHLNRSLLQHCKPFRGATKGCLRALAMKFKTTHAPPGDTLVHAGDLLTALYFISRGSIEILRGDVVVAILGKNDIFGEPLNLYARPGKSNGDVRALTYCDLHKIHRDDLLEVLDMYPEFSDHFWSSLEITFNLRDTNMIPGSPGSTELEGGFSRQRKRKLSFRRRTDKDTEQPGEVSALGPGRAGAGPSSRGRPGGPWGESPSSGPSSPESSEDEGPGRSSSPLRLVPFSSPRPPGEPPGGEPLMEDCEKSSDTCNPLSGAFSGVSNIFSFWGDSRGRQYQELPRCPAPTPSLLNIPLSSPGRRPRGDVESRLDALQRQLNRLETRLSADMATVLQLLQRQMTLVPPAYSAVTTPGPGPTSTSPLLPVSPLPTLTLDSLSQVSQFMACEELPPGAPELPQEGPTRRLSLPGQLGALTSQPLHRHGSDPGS", "assay": "primary screen, population patch clamp on CHO cells stably expressing hERG", "units": {"hERG current change (%, negative = inhibition) at 10uM": "%"}}
{"smiles": "COc1ccc(S(=O)(=O)NCC2CCCN(C(=O)c3ccco3)C2)cc1", "note": "(stereo not drawn)", "hERG current change (%, negative = inhibition) at 10uM": 5.13}
{"smiles": "CCC(C)NCCOCCOc1cc(C)c(Cl)c(C)c1.O=C(O)C(=O)O", "note": "(stereo not drawn)", "hERG current change (%, negative = inhibition) at 10uM": -59.2}
{"smiles": "Cc1ccc(C2OCC3(CO2)COC(c2ccc(C)cc2)OC3)cc1", "note": "(stereo not drawn)", "hERG current change (%, negative = inhibition) at 10uM": 1.72}
{"smiles": "Cn1c(=O)oc2cc(S(=O)(=O)N3CCN(c4ccccc4)CC3)ccc21", "hERG current change (%, negative = inhibition) at 10uM": -5.02}
{"smiles": "O=C(CN(Cc1ccccc1Cl)C(=O)CCC(=O)Nc1nccs1)NCC1CCCO1", "note": "(stereo not drawn)", "hERG current change (%, negative = inhibition) at 10uM": 7.87}
{"smiles": "CN(C)c1cccc(C(=O)NNC(=O)/C=C/c2cccs2)c1", "hERG current change (%, negative = inhibition) at 10uM": -3.37}
{"smiles": "Cc1cccc(N2CCN(S(=O)(=O)c3c(C)[nH]c(=O)[nH]c3=O)CC2)c1C", "hERG current change (%, negative = inhibition) at 10uM": 23.5}
{"smiles": "O=C1CSC(c2cccc(O)c2)N1Cc1ccccc1", "note": "(stereo not drawn)", "hERG current change (%, negative = inhibition) at 10uM": 11}
{"smiles": "CN(C)CCCNc1nc(N)c([N+](=O)[O-])c(NCc2ccccc2)n1", "hERG current change (%, negative = inhibition) at 10uM": -34.5}
{"smiles": "O=c1[nH]c2c(c(=O)[nH]1)CCC2", "hERG current change (%, negative = inhibition) at 10uM": 17.7}
{"smiles": "COc1ccc(-n2ncc(C(C)NS(=O)(=O)c3cccs3)c2C)cc1", "note": "(stereo not drawn)", "hERG current change (%, negative = inhibition) at 10uM": 2.48}
{"smiles": "CCCOc1ccc(C2CC(=O)NC2=O)cc1", "note": "(stereo not drawn)", "hERG current change (%, negative = inhibition) at 10uM": 9.32}
{"smiles": "O=C(Cc1ccc(Cl)cc1)N/N=C/c1c(Cl)cccc1Cl", "hERG current change (%, negative = inhibition) at 10uM": 8.7}
{"smiles": "Cc1ccc(C)c(OCCC(=O)OCC(=O)Nc2cccc(S(=O)(=O)N3CCCC3)c2)c1", "hERG current change (%, negative = inhibition) at 10uM": 9.08}
{"smiles": "CN1CCN(/N=C/c2ccc(-c3ccccc3)cc2)CC1", "hERG current change (%, negative = inhibition) at 10uM": -43}
{"smiles": "CC(C)OC(=O)c1ccc(N2CCN(c3ccccc3F)CC2)nc1", "hERG current change (%, negative = inhibition) at 10uM": 16}
{"smiles": "CC(C)CNC(=O)CC(c1ccccc1)c1c(O)ccc2ccccc12", "note": "(stereo not drawn)", "hERG current change (%, negative = inhibition) at 10uM": 4.84}
{"smiles": "CC(=O)c1sc(NS(=O)(=O)c2ccc(C)cc2)nc1C", "hERG current change (%, negative = inhibition) at 10uM": 18.2}
{"smiles": "CC(C)(C)c1cc(C(=O)NCc2ccco2)ccn1", "hERG current change (%, negative = inhibition) at 10uM": 16.3}
{"smiles": "CC(=O)N(c1nc(CCl)cs1)c1ccc(C)cc1C", "hERG current change (%, negative = inhibition) at 10uM": 12.4}
{"smiles": "O=C(N/N=C/c1ccco1)c1cccc(NC(=O)c2cccc(Cl)c2)c1", "hERG current change (%, negative = inhibition) at 10uM": -34.9}
{"smiles": "CC1(C(=O)NCCN2CCOCC2)C=CCN1C(=O)c1ccccc1", "note": "(stereo not drawn)", "hERG current change (%, negative = inhibition) at 10uM": 3.07}
{"smiles": "CC(C)(C)OC(=O)NC(=NCCCc1cn(CC(=O)N2CCN(C(=O)OC(C)(C)C)CC2)nn1)NC(=O)OC(C)(C)C", "hERG current change (%, negative = inhibition) at 10uM": 5.68}
{"smiles": "O=C(O)C(=O)O.OCCNCCSc1ccc(Cl)cc1", "hERG current change (%, negative = inhibition) at 10uM": -1.72}
{"smiles": "CCOC(=O)Cn1nnnc1C(C(C)C)N(Cc1cc2c(C)cc(C)cc2[nH]c1=O)C1CCCC1", "note": "(stereo not drawn)", "hERG current change (%, negative = inhibition) at 10uM": 14.5}
{"smiles": "CCOc1ccccc1NC(=O)CSc1nnc(CNC(=O)c2cc(OC)c(OC)c(OC)c2)o1", "hERG current change (%, negative = inhibition) at 10uM": -3.96}
{"smiles": "CCN1CCN(Cc2cc(Br)ccc2O)CC1", "hERG current change (%, negative = inhibition) at 10uM": -22.7}
{"smiles": "CNCCOc1ccccc1C(C)(C)C.O=C(O)C(=O)O", "hERG current change (%, negative = inhibition) at 10uM": 8.04}
{"smiles": "COc1ccc(S(=O)NC2CCCCC2)c(OC)c1C", "note": "(stereo not drawn)", "hERG current change (%, negative = inhibition) at 10uM": -2.46}
{"smiles": "O=C(NCc1ccccc1)C1CCCN1C(=O)Nc1ccccc1[N+](=O)[O-]", "note": "(stereo not drawn)", "hERG current change (%, negative = inhibition) at 10uM": -1.32}
{"smiles": "Cc1c(C(=O)NCCSCc2ccccc2Cl)cccc1[N+](=O)[O-]", "hERG current change (%, negative = inhibition) at 10uM": -14.3}
{"smiles": "CN(C)c1ccc(C#Cc2ccc3cc(CCO)oc(=O)c3c2)cc1", "hERG current change (%, negative = inhibition) at 10uM": 5.93}
{"smiles": "CN(C(=O)COC(=O)/C=C/c1ccc2ccccc2n1)c1c(N)n(Cc2ccccc2)c(=O)[nH]c1=O", "hERG current change (%, negative = inhibition) at 10uM": 4.53}
{"smiles": "CNC(=O)NC(=O)COC(=O)CCc1nc(=O)c2ccccc2n1C", "hERG current change (%, negative = inhibition) at 10uM": -19.2}
{"smiles": "O=[N+]([O-])c1cc(Br)c2nsnc2c1N1CCOCC1", "hERG current change (%, negative = inhibition) at 10uM": -45}
{"smiles": "Cc1cnccc1CN(C)Cc1nc(Cc2ccccc2Cl)no1", "hERG current change (%, negative = inhibition) at 10uM": 1.88}
{"smiles": "C=CCN1C(=O)c2ccc(C(=O)NCC(=O)Nc3c(C)cc(C)cc3C)cc2C1=O", "hERG current change (%, negative = inhibition) at 10uM": 14}
{"smiles": "Cc1ccc(-c2nc(-c3ccncc3)no2)cc1", "hERG current change (%, negative = inhibition) at 10uM": 21.3}
{"smiles": "CS(=O)(=O)N(CC(=O)N1CCN(c2ccccc2F)CC1)c1ccc2c(c1)OCCO2", "hERG current change (%, negative = inhibition) at 10uM": -15.2}
{"smiles": "N/C(=N\\N=C\\c1cccc([N+](=O)[O-])c1)c1nonc1N", "hERG current change (%, negative = inhibition) at 10uM": 0.273}
{"smiles": "COC(=O)C(C)Sc1nc2c(c(=O)[nH]c(=O)n2C)n1CCC(C)C", "note": "(stereo not drawn)", "hERG current change (%, negative = inhibition) at 10uM": -24.6}
{"smiles": "Cc1nc2cc(CC(=O)O)ccc2o1", "hERG current change (%, negative = inhibition) at 10uM": 2.46}
{"smiles": "Cc1cc2c(cc1S(=O)(=O)N1CCN(c3cccc(C)c3C)CC1)OCC(=O)N2", "hERG current change (%, negative = inhibition) at 10uM": 2.67}
{"smiles": "CN(C)CCCN1C(=O)C(=O)/C(=C(/O)c2ccncc2)C1c1ccccc1", "note": "(stereo not drawn)", "hERG current change (%, negative = inhibition) at 10uM": -11}
{"smiles": "Cc1ccc(CNC(=O)[C@H](C)[C@H]2C[C@]2(C)[C@H](NC(=O)OCc2ccccc2)c2ccccc2)o1", "hERG current change (%, negative = inhibition) at 10uM": -11.1}
